Reference: PubChem BioAssay AID1347073 (National Center for Advancing Translational Sciences (NCATS), 2019)
The campaign covered roughly 45,000 compounds. About 200 (0.44%) were called active. Not shown: some 7% with an inconclusive outcome. Calls come from the whole dose curve; as a rule, active = well fitted activation curve with a large enough effect; inconclusive = small, poorly fitted or top-dose-only effect; inactive = no such curve, though single readings can be large or run the other way. The list shows a part of the results.

Experiment: qHTS of TDP-43 Inhibitors: NCGC Sytravon Library Screen; note: nearly all actives have a fitted effect of over 55% in size; for growth rescue (activation): 0% is about no effect
Conditions: yeast TDP-43 toxicity rescue, BacTiter-Glo growth, 24 h; series mostly up to 46.1 µM; growth rescue (activation): at the top concentration
Method in brief: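 TDP-43-expressing yeast, pregrown in raffinose, seeded at OD600 0.02 in galactose medium with compound for 24 hr at 30 deg C. Growth read by BacTiter-Glo luminescence, so rescue of toxicity appears as activation.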
Potency is the fitted concentration of half-maximal effect.

Row | Structure (SMILES) | growth rescue (activation) | Potency
1 | COc1cccc(OC)c1CN1CCCC(C(=O)c2ccccc2SC)C1 (configuration not stated) | inactive: 5.77% | 
2 | COC(=O)Nc1nnc(-c2ccc(OC)cc2)s1 | inactive: 2.29% | 
3 | N#CCSc1ccccc1NC(=O)CN1C(=O)C(=O)N(Cc2ccccc2)C1=O | inactive: 1.39% | 
4 | Cc1cc(C(=O)N/N=C/c2cc(Cl)cc([N+](=O)[O-])c2O)n[nH]1 | inactive: 23.5% | 
5 | CCN(CC)c1ccc(NC(=O)c2ccc(S(=O)(=O)N3CCOCC3)cc2)cc1 | inactive: 17.5% | 
6 | Cc1ccc(S(=O)(=O)N(C)C)cc1NC(=S)NCCc1ccccn1 | inactive: -6.71% | 
7 | O=C(/C=C/c1c(F)cccc1Cl)Nc1ccncc1 | inactive: 14.3% | 
8 | CC1(C(=O)NS(=O)(=O)c2ccccc2Cl)CCN1C(=O)Cc1cc(F)ccc1F (configuration not stated) | inactive: 12.6% | 
9 | CCN(C(=O)CN1CCCc2cc(C)ccc21)c1c(N)n(Cc2ccccc2)c(=O)[nH]c1=O | inactive: -7.46% | 
10 | COc1ccc2nc(NC(=O)c3ccc(NC(=O)C4CCCO4)cc3)sc2c1 (configuration not stated) | inactive: 8.44% | 
11 | COc1ccc(NS(=O)(=O)c2ccc3c(c2)OCCO3)cc1OC | inactive: -0.084% | 
12 | C/C(=N\NC(=O)c1cc(-c2ccc(Cl)s2)[nH]n1)c1ccncc1 | inactive: 0.118% | 
13 | CCC(C)C(=O)Nc1nc2ccc(OC)cc2s1 (configuration not stated) |  | active: 11.2 µM
14 | COC(=O)c1ccc(C2C(C#N)=C(N)Oc3cc(N)ccc32)cc1 (configuration not stated) | inactive: 13.2% | 
15 | Cc1ccc(-c2cc(C(=O)Nc3cc(C)ccc3O)no2)cc1 | inactive: -4.14% | 
16 | CCc1nc(NCCN2CCOCC2)c2oc3ccccc3c2n1 | inactive: 23.6% | 
17 | COC(=O)c1ccc(COc2ccccc2/C=C(\C#N)C(=O)Nc2ccc(C)cc2C)cc1 | inactive: -5.71% | 
18 | O=C(Cn1nnc2ccccc2c1=O)NC1CCCCC1 | inactive: 16.9% | 
19 | Cc1ccc(S(=O)(=O)N(C)c2cc(S(=O)(=O)Nc3ccncc3)c(C)cc2C)cc1 | inactive: 17.4% | 
20 | CC1=C(C(=O)Nc2cccc(C(=O)NC(C)C)c2)SCCO1 | inactive: 2.28% | 
21 | Cc1nc(S(=O)(=O)c2ccc(Cl)cc2)c(NCc2ccccc2)o1 | inactive: 16.8% | 
22 | COc1ccccc1NC(=O)N1C2CCCC1CC(NC(=O)c1ccccc1)C2 (configuration not stated) | inactive: -1.62% | 

Row | Structure (SMILES) | growth rescue (activation) | Potency
23 | CC(=O)Nc1ccc(S(=O)(=O)NCCC(=O)OCC(=O)NCc2ccccc2)cc1 | inactive: 2.36% | 
24 | CCOc1ccccc1NC(=O)COC(=O)c1cc[n+]([O-])cc1 | inactive: 0.882% | 
25 | O=C(O)c1c2c(nc3ccccc13)/C(=C/c1ccc(O)cc1)CCC2 | inactive: 7.04% | 
26 | O=C(c1cc(-c2ccc(Cl)cc2Cl)on1)N1CCCC1 | inactive: 29.6% | 
27 | CCOCCc1nnc(NC(=O)CS(=O)(=O)Cc2ccccc2)s1 | inactive: -0.533% | 
28 | Cc1cc(C)c(N=Cc2c(O)n(-c3nccs3)c(=O)c3ccccc23)c(C)c1 | inactive: 15.8% | 
29 | CCN(C(=O)COC(=O)c1ccc2c(c1)OCO2)c1ccccc1 | inactive: 14.7% | 
30 | Cc1sc2ncnc(SCC(=O)c3ccc4c(c3)OCCO4)c2c1-c1ccccc1 | inactive: -2.79% | 
31 | O=C(/C=C/c1cccnc1)c1ccc(O)cc1 | inactive: 15% | 
32 | COc1ccc(/C=N/NC(=O)CN(C2=NS(=O)(=O)c3ccccc32)c2ccccc2)cc1OC | inactive: 7.1% | 
33 | Fc1ccccc1CN1CCCN(C(=S)Nc2cccc(Cl)c2)C1 | inactive: 25.5% | 
34 | Cc1cccc(N2C(=O)Cc3ccccc3C2=O)c1 | inactive: -32.7% | 
35 | COc1cccc(C(=O)NCC(=O)OCC(=O)Nc2cc(OC)c([N+](=O)[O-])cc2C)c1 | inactive: -9.15% | 
36 | CCOC(=O)N1CCN(C(=O)N2CCOCC2)CC1 | inactive: 20.8% | 
37 | O=C(Nc1ccc(S(=O)(=O)N2CCOCC2)cc1)c1ccc(CN2CCc3ccccc3C2)cc1 | inactive: -11.2% | 
38 | O=S(=O)(Cc1ccccc1)Nc1ccc(F)cc1 | inactive: 9.65% | 
39 | CC(C)C[C@H](NC(=O)NCc1ccc(Cl)cc1)C(=O)O | inactive: -1.82% | 
40 | CCOC(=O)C1=C(C)NC(C)=C(C(=O)OCC)C1C(=O)OCC(=O)NC(C)C | inactive: 9.85% | 
41 | CCOC(=O)C1=C(C)NC(C)=C(C(=O)OCC)C1C(=O)OCC(=O)N(C)C | inactive: 9.69% | 
42 | CCc1ccc(N2C(=O)CN(CC(=O)OC)C2=S)cc1 | inactive: -12.6% | 
43 | Cc1ccc(C(C(=O)NC(C)(C)C)N(Cc2ccco2)C(=O)CCC(=O)Nc2ccccn2)cc1 (configuration not stated) | inactive: -4.87% | 
44 | O=C(NC1CCN(C(=S)Nc2ccc(Cl)cc2)CC1)c1ccco1 | inactive: 4.69% | 

Row | Structure (SMILES) | growth rescue (activation) | Potency
45 | O=[N+]([O-])c1ccc(-c2nc(C(Cl)Cl)c3ccccc3n2)cc1 | inactive: 0.332% | 
46 | Cc1ccc(S(=O)(=O)Nc2ccc(Cl)cc2C(=O)c2ccccc2)cc1 | inactive: -5% | 
47 | CCc1ccccc1NC(=O)CSc1nnc(C2CC2)n1CC1CCCO1 (configuration not stated) | inactive: -0.428% | 
48 | COc1ccc(/C(N)=N/OC(=O)C2CCC(=O)N2S(=O)(=O)c2ccc(C)cc2)cc1 (configuration not stated) | inactive: 6.93% | 
49 | COCCSc1nnc(NC(=O)c2cc(OC)c(OC)cc2[N+](=O)[O-])s1 | inactive: -8.37% | 
50 | CC(=O)Nc1ccc(S(=O)(=O)N(C)c2ccc(OCCOc3ccccc3F)cc2)cc1 | inactive: 12.8% | 
51 | CC1(Oc2cccc(C#N)c2)CCN(Cc2csc3ccccc23)C1 (configuration not stated) | inactive: 4.29% | 
52 | CC(C)(C)c1cc(CCC(=O)NNC(=O)c2ccco2)cc(C(C)(C)C)c1O | inactive: 4.12% | 
53 | COc1cc(CN2C[C@@H](CO)O[C@@H](n3cnc4c(NC5CC5)ncnc43)C2)cc(OC)c1OC | inactive: 7.18% | 
54 | CCCNC(=O)C1(C)CCN(Cc2noc(-c3ccccc3OC)n2)C1 (configuration not stated) | inactive: 11.3% | 
55 | COc1ccc(S(=O)(=O)Nc2cc(C(=O)NCCCOC(C)C)ccc2N2CCOCC2)cc1 | inactive: -18% | 
56 | COc1ccc(CCC(=O)OCC(=O)NCc2ccc(OC)c(OC)c2)cc1OC | inactive: 26.1% | 
57 | O=C(NCCc1ccccc1)Nc1ccc(Cl)cc1 | inactive: 20.7% | 
58 | CN(C)S(=O)(=O)c1cc(NC(=O)CNCc2ccccc2)ccc1Cl | inactive: -8.28% | 
59 | CS(=O)(=O)Nc1ccccc1C(=O)NCc1ccccc1Cl | inactive: -6.02% | 
60 | CNC(=O)N(C1=NCCCCC1)c1ccc(Br)cc1 | inactive: 18% | 
61 | O=C1c2ccccc2C(=O)N1c1ccc(S(=O)(=O)N2CCN(c3ccccc3)CC2)cc1 | inactive: 15.3% | 
62 | COC(=O)c1ccc(-c2ncc[nH]2)cc1 | inactive: -14.4% | 
63 | Cc1ccc(NC(=O)CCNC(=O)c2ccc(Cl)cc2)cc1F | inactive: 10.6% | 
64 | CSc1cccc(NC(=O)CSc2ncccc2C(=O)Oc2cccc([N+](=O)[O-])c2)c1 | inactive: -2.43% | 
65 | NCCc1c(-c2ccccc2)n(-c2ccccc2)c2ccccc12 | inactive: -2.68% | 
66 | COc1ccc(C(=O)NNC(=O)c2cccc(S(=O)(=O)N3CCOCC3)c2)cc1 | inactive: 4.14% | 

Row | Structure (SMILES) | growth rescue (activation) | Potency
67 | Oc1ccc(-c2nc3ccc(Cl)cn3c2Nc2ccc(Cl)cc2)cc1 | inactive: 11% | 
68 | O=C(CSc1nnc(-c2ccncc2)o1)NCc1ccccc1Cl | inactive: 2.7% | 
69 | COc1ccc(C(CNc2ccc(S(=O)(=O)N3CCCC3)cc2[N+](=O)[O-])N2CCCC2)cc1 (configuration not stated) | inactive: -24.1% | 
70 | O=C(CCC(=O)N(CC(=O)NC1CCCC1)Cc1ccccc1)Nc1nccs1 | inactive: 9.9% | 
71 | CC1CC(C)CN(C(=O)Cn2nnc(-c3ccccc3)n2)C1 (configuration not stated) | inactive: 9.71% | 
72 | CCOc1cccc(OCCCCN2CCOCC2)c1 | inactive: -30.6% | 
73 | COc1ccc(Cc2n[nH]c(=S)n2C)cc1Br | inactive: 6.99% | 
74 | CC(NC(=O)COC(=O)Cc1ccc(Cl)cc1)c1ccccc1 (configuration not stated) | inactive: 11.1% | 
75 | O=C(COC(=O)CCC(=O)N1CCOCC1)Nc1ccc(Br)cc1Br | inactive: -8.61% | 
76 | CN(C(=O)CSc1nnc(-c2ccco2)n1N)C1CCCCC1 | inactive: -7.34% | 
77 | COc1ccccc1NC(=O)Nc1nnc(CC(=O)Nc2ccccc2C)s1 | inactive: 13.5% | 
78 | O=C(NCCCN1CCCC1=O)c1cc(-c2ccc(F)cc2)nc2ccccc12 | inactive: 8.76% | 
79 | O=C(Nc1ccc2[nH]c3c(c2c1)CCCC3)c1ccco1 | inactive: 14.9% | 
80 | Cn1cccc1-c1cc(C(=O)N/N=C/c2ccc(F)cc2)[nH]n1 | inactive: -3.79% | 
81 | Cc1cc(C)n(-c2nnc3c4ccccc4n(C)c3n2)n1 | inactive: -11.1% | 
82 | CCOc1ccccc1N1CCN(C(=O)NC(C)c2ccc(F)c(F)c2)CC1 (configuration not stated) | inactive: 17% | 
83 | CCOc1ccc(C(=O)NC(=S)NC2CCCC2)cc1[N+](=O)[O-] | inactive: 25.6% | 
84 | CCCCn1c(SCC(=O)N2CCOCC2)nc2ccccc2c1=O | inactive: 11.3% | 
85 | CCCCOc1ccc(C(C)NC(=O)CCS(=O)(=O)Cc2ccc(C)cc2)cc1 (configuration not stated) | inactive: -15.1% | 
86 | Cc1sc2nc(CC(=O)NN)[nH]c(=O)c2c1C | inactive: 8.63% | 
87 | Cc1[nH]c2ccc(-c3n[nH]c(=S)n3Cc3ccccc3)cc2c1C | inactive: 21.8% | 
88 | COc1ccc(OC)c(NC(=O)c2ccc(CN(c3cc(Cl)ccc3C)S(=O)(=O)c3ccccc3)cc2)c1 | inactive: -15.4% | 

Row | Structure (SMILES) | growth rescue (activation) | Potency
89 | COc1ccc(NC(=O)C(C)N(C)Cc2ccc3ccccc3c2)cc1 (configuration not stated) | inactive: -5.86% | 
90 | Cc1nc2cc(C(=O)OCC(=O)Nc3cccc(Cl)c3)ccc2n1-c1ccccc1 | inactive: 17.9% | 
91 | COCC1CCN(Cc2cn[nH]c2-c2ccc(OC)cc2F)C1 (configuration not stated) | inactive: -7.83% | 
92 | FC(F)(F)c1ccc(Cl)c(N/N=C/c2ccc(N3CCOCC3)s2)c1 | inactive: 6.72% | 
93 | COc1cc(C(=O)NCCCNc2nc3cc(C)c(C)cc3cc2C#N)cc(OC)c1OC | inactive: -2.6% | 
94 | CCOc1ccc(CCNC(=O)c2cc(C)nn2-c2ccccc2)cc1 | inactive: 23.9% | 
95 | Cc1ccc(-c2nc3ncccc3o2)cc1NC(=O)c1ccc2c(c1)OCO2 | inactive: -0.247% | 
96 | CC[C@@H](C)[C@H](NC(=O)Cc1c(C)c2c(cc(C)c3c(C)c(C)oc32)oc1=O)C(=O)O | inactive: -8.55% | 
97 | Cc1cccc(N2CCN(C(=O)c3ccccn3)CC2C)c1 (configuration not stated) | inactive: 6.67% | 
98 | CCOC(=O)CC1=NC(=O)CS1 | inactive: 18.7% | 
99 | C=C(C)CNC(=S)N/N=C/c1ccc(N2CCOCC2)cc1 | inactive: 20.4% | 
100 | CN(C)S(=O)(=O)N1CCN(c2ccc([N+](=O)[O-])c(NC3CC3)c2)CC1 | inactive: -7.31% | 
101 | O=C(CCc1ccc(S(=O)(=O)NC2CCCCC2)cc1)NCc1cccnc1 | inactive: -15.4% | 
102 | COc1ccccc1CNC(=O)c1cc(C(C)C)nc2ccccc12 | inactive: 11% | 
103 | Cc1ccc(S(=O)(=O)Nc2nc3n(n2)C(c2ccc(Cl)cc2)CC(=O)N3)cc1 (configuration not stated) | inactive: -4.95% | 
104 | CNC(=O)NC(=O)C(c1ccccc1)N(C)CC1COc2ccccc2O1 (configuration not stated) | inactive: 3.67% | 
105 | CC(Sc1ncccn1)C(=O)N1CCc2ccccc21 (configuration not stated) | inactive: -20.4% | 
106 | O=C(COC(=O)CCC(=O)c1ccc(F)cc1)NCc1ccc(Cl)cc1 | inactive: 12.8% | 
107 | CC(=O)c1cccc(NC(=O)CC(C)n2ccnc2)c1 (configuration not stated) | inactive: -17.2% | 
